From the supplement of paper PMC4967469
By IC50 is meant the dose at which the fit gives 50% viability; a limit (>, <) means that the fit lies beyond the doses tested. The AUC spans the tested range (256-fold, ending at the top dose) of the same fit; the more sensitive the line, the further below 1. For some of these results: A top dose marked as inferred was derived from the fitted curves, not read from the paper. For some of these results: Drugs with an entry number were screened twice under separate entries, and the two screens often disagree.

Assays:
Test in all cases: Viability of human cancer cell lines after 72 h of drug (GDSC screen)
AZD6244 = compound: Cn1cnc2c(F)c(Nc3ccc(Br)cc3Cl)c(C(=O)NOCCO)cc21 [AZD6244]; conditions: top dose 4 µM; screen: GDSC drug entry 1498; top dose inferred
Experimental: (§1)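 Human cancer cell lines in 384-well plates, medium with 10% serum, drug for 72 h over a 256-fold dose range (nine 2-fold or five 4-fold steps up to the top dose). Adherent lines were fixed and stained with the nucleic acid dye Syto60, suspension lines read with resazurin; signal relative to control wells, capped at 0 and 100%. One two-parameter sigmoid per drug and line, fitted in a mixed model over all curves with the slope shared within a line.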

AS601245 = compound: N#CC(c1ccnc(NCCc2cccnc2)n1)c1nc2ccccc2s1 [AS601245]; conditions: top dose 8 µM; top dose inferred
Experimental: as §1

EX-527 = compound: NC(=O)C1CCCc2c1[nH]c1ccc(Cl)cc21 [EX-527]; conditions: top dose 20 µM
Experimental: as §1

YM201636 = compound: Nc1ccc(C(=O)Nc2cccc(-c3nc(N4CCOCC4)c4oc5ncccc5c4n3)c2)cn1 [YM201636]; conditions: top dose 5.12 µM; top dose inferred
Experimental: as §1

Cell Line	AUC (AZD6244)	IC50 (AZD6244)	AUC (AS601245)	IC50 (AS601245)	AUC (EX-527)	IC50 (EX-527)	AUC (YM201636)	IC50 (YM201636)
HT-1080 (fibrosarcoma, adherent)	0.811	1.85 µM	0.866	5.94 µM	0.989	> 20 µM	0.973	> 5.12 µM
HT-1197 (bladder, adherent)	0.879	> 4 µM	0.85	7.87 µM	0.985	> 20 µM	0.96	> 5.12 µM
HT-1376 (bladder, adherent)	0.752	1.54 µM	0.794	4.42 µM	0.983	> 20 µM	0.985	> 5.12 µM
HTC-C3 (thyroid, adherent)	0.437	0.165 µM	0.837	6.32 µM	0.969	> 20 µM	0.856	4.96 µM
Hep 3B2_1-7 (liver, adherent)	0.869	3.67 µM	0.858	6.53 µM	0.973	> 20 µM	0.95	> 5.12 µM
Hs633T (fibrosarcoma, adherent)	0.562	0.358 µM	0.843	4.22 µM	0.986	> 20 µM	0.903	4.55 µM
Hs683 (glioma, adherent)	0.963	> 4 µM	0.872	7.76 µM	0.988	> 20 µM	0.955	> 5.12 µM
Hs766T (pancreas, adherent)	0.776	2.14 µM	0.827	7.18 µM	0.984	> 20 µM	0.979	> 5.12 µM
Hs939-T (melanoma, adherent)	0.592	0.458 µM	0.882	> 8 µM	0.98	> 20 µM	0.973	> 5.12 µM
Hs940-T (melanoma, adherent)	0.976	> 4 µM	0.706	2.18 µM	0.984	> 20 µM	0.984	> 5.12 µM
Hs-578-T (breast, adherent)	0.79	1.9 µM	0.868	> 8 µM	0.981	> 20 µM	0.968	> 5.12 µM
HuCCT1 (biliary tract, adherent)	0.538	0.322 µM	0.814	5 µM	0.978	> 20 µM	0.896	> 5.12 µM
HuH-7 (liver, adherent)	0.94	> 4 µM	0.896	> 8 µM	0.978	> 20 µM	0.987	> 5.12 µM
HuO9 (osteosarcoma, adherent)	0.96	> 4 µM	0.962	> 8 µM	0.981	> 20 µM	0.927	> 5.12 µM
HuO-3N1 (osteosarcoma, adherent)	0.967	> 4 µM	0.561	0.772 µM	0.982	> 20 µM	0.953	> 5.12 µM
HuP-T3 (pancreas, adherent)	0.625	0.6 µM	0.929	> 8 µM	0.976	> 20 µM	0.9	> 5.12 µM

Cell Line	AUC (AZD6244)	IC50 (AZD6244)	AUC (AS601245)	IC50 (AS601245)	AUC (EX-527)	IC50 (EX-527)	AUC (YM201636)	IC50 (YM201636)
IA-LM (large cell lung carcinoma, adherent)	0.888	> 4 µM	0.688	1.81 µM	0.983	> 20 µM	0.982	> 5.12 µM
IGR-37 (melanoma, adherent)	0.148	0.0233 µM	0.839	4.79 µM	0.829	11 µM	0.809	2.4 µM
IHH-4 (thyroid, semi-adherent)	0.617	0.489 µM	0.813	3.29 µM	0.984	> 20 µM	0.993	> 5.12 µM
IM-95 (stomach, adherent)	0.958	> 4 µM	0.781	3.54 µM	0.986	> 20 µM	0.747	1.74 µM
IPC-298 (melanoma, adherent)	0.162	0.0237 µM	0.757	2.72 µM	0.979	> 20 µM	0.93	> 5.12 µM
J82 (bladder, adherent)	0.914	> 4 µM	0.756	2.72 µM	0.985	> 20 µM	0.953	> 5.12 µM
JEG-3 (urogenital system, adherent)	0.99	> 4 µM	0.856	5.48 µM	0.985	> 20 µM	0.991	> 5.12 µM
JHH-1 (liver, adherent)	0.54	0.324 µM	0.828	5.49 µM	0.985	> 20 µM	0.792	2.54 µM
JHH-2 (liver, adherent)	0.899	> 4 µM	0.925	> 8 µM	0.985	> 20 µM	0.969	> 5.12 µM
JHH-4 (liver, adherent)	0.946	> 4 µM	0.811	4.24 µM	0.967	> 20 µM	0.872	4.83 µM
JHH-6 (liver, adherent)	0.957	> 4 µM	0.855	6.56 µM	0.976	> 20 µM	0.903	> 5.12 µM
JHH-7 (liver, adherent)	0.801	1.81 µM	0.786	3.23 µM	0.984	> 20 µM	0.965	> 5.12 µM
JHU-011 (head and neck, adherent)	0.934	> 4 µM	0.908	> 8 µM	0.986	> 20 µM	0.927	> 5.12 µM
JHU-022 (head and neck, adherent)	0.772	1.97 µM	0.982	> 8 µM	0.982	> 20 µM	0.872	> 5.12 µM
JIMT-1 (breast, adherent)	0.855	3.6 µM	0.786	3.75 µM	0.982	> 20 µM	0.952	> 5.12 µM
K2 (melanoma, adherent)	0.311	0.0628 µM	0.841	> 8 µM	0.981	> 20 µM	0.956	> 5.12 µM
